Reference: publication PMC4336329 (PLoS ONE, 2015)
About 14,000 (4.5%) of roughly 310,000 compounds showed an effect of 50% or more. The effect is printed as a negative number. The list shows a part of the results.
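Further: peak tail current of the secondary pulse compared with the same well before compound.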

The compounds below were run against human ether-à-go-go-related gene (hERG) potassium channel (human, UniProt Q12809) (assay: primary screen, population patch clamp on CHO cells stably expressing hERG).
human ether-à-go-go-related gene (hERG) potassium channel, sequence (Q12809 whole entry, looked up): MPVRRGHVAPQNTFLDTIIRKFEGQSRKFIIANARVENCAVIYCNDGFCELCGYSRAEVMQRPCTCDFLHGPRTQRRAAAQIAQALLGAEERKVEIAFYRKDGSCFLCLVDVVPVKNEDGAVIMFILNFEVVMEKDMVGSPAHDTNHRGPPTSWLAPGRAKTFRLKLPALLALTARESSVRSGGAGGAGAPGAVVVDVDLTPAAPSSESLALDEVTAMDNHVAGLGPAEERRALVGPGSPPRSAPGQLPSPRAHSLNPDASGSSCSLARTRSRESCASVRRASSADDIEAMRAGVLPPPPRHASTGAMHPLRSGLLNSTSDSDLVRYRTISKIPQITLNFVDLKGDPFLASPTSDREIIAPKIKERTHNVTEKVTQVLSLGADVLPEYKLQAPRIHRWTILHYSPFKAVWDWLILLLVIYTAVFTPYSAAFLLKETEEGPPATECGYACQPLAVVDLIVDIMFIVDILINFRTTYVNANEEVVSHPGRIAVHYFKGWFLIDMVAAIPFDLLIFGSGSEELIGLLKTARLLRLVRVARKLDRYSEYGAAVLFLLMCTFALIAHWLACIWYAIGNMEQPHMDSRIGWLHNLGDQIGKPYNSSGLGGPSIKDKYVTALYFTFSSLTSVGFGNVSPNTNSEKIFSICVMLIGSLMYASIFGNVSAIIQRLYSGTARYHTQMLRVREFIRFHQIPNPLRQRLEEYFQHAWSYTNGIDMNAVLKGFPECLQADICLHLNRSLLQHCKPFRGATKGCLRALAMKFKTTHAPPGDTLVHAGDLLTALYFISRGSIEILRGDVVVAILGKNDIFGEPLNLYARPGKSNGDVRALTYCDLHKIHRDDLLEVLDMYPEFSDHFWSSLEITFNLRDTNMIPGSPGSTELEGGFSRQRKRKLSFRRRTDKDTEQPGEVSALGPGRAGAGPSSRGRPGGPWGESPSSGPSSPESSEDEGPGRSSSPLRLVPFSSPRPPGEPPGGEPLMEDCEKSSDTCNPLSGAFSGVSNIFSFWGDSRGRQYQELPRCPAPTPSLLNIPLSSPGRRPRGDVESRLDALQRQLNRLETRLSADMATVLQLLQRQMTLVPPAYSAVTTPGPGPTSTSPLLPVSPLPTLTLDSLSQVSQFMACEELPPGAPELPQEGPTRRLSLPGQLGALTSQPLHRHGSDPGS
`CC(C(=O)N1CCc2ccccc21)N1CCN(S(=O)(=O)c2cccc(C(F)(F)F)c2)CC1` (centres unmarked) was tested, and the “hERG current change (%, negative = inhibition) at 10uM” value was 2.4%.
`C(=N\n1cnnc1)/c1ccc(N2CCOCC2)cc1` was tested, and the “hERG current change (%, negative = inhibition) at 10uM” value was -7.98%.
`Cc1cc(Oc2ccccc2)nc(OCC#N)n1` was tested, and the “hERG current change (%, negative = inhibition) at 10uM” value was -8.22%.
In the case of `CCC(=O)Nc1cc(=O)[nH]c2ncnn12`, the “hERG current change (%, negative = inhibition) at 10uM” value is reported as -6.76%.
`CN(Cc1ccccc1)C(=O)C(=O)c1cn(CC(=O)N2CCCC2)c2ccccc12` was tested, and the “hERG current change (%, negative = inhibition) at 10uM” value was 11.2%.
With `S=c1[nH]ncn1NCc1cccc(Br)c1` the “hERG current change (%, negative = inhibition) at 10uM” value was 12.2%.
In the case of `COc1ccc(CN2CCOCCOCCOCC2)cc1`, the “hERG current change (%, negative = inhibition) at 10uM” value is reported as -58.3%.
For `Cc1ccc(NC(=O)c2oc(=O)c3ccccc3c2-c2ccccc2)c(C)c1`, the “hERG current change (%, negative = inhibition) at 10uM” value was -7.94%.
`CC(C)c1ccc(-n2c(O)c(/C=N/NC(=O)c3ccccc3O)c(=O)[nH]c2=S)cc1` was tested, and the “hERG current change (%, negative = inhibition) at 10uM” value was 15.3%.
`O=C(O)c1nn(CC(=O)N2CCN(S(=O)(=O)c3ccc(Cl)cc3)CC2)c(=O)c2ccccc12` was tested, and the “hERG current change (%, negative = inhibition) at 10uM” value was 0.437%.
`COc1cccc(NC(=O)/C=C/c2ccccc2[N+](=O)[O-])c1` was tested, and the “hERG current change (%, negative = inhibition) at 10uM” value was -8.62%.
`COc1cccc(NC(=O)CN2C(=O)COc3ccc(Cl)cc32)c1` was tested, and the “hERG current change (%, negative = inhibition) at 10uM” value was -0.142%.
With `C=C(C)C(=O)Nc1cccc(C2=NOC3(C2)C[C@@H](C(N)=O)N(C(=O)c2cc([N+](=O)[O-])cc([N+](=O)[O-])c2)C3)c1` (some centres unmarked) the “hERG current change (%, negative = inhibition) at 10uM” value was -0.0222%.
`COc1ccccc1NC(=O)c1cc2n(n1)C(C(F)(F)F)CC(c1ccc3c(c1)OCO3)N2` (centres unmarked) was tested, and the “hERG current change (%, negative = inhibition) at 10uM” value was 15.7%.
In the case of `CCOC(=O)c1cc(-c2ccccc2)sc1NC(=O)CCN1C(=O)c2ccccc2C1=O`, the “hERG current change (%, negative = inhibition) at 10uM” value is reported as 13.2%.
For `CN=c1oc2ccc(Cl)cc2cc1C(N)=O`, the “hERG current change (%, negative = inhibition) at 10uM” value was -0.583%.
`O=C(O)CC1OCC=C2CN3CCC45c6ccccc6NC4C1C2CC35` (centres unmarked) was tested, and the “hERG current change (%, negative = inhibition) at 10uM” value was 16.7%.
With `CCOc1ccccc1NC(=O)COC(=O)c1cnc(C)cn1` the “hERG current change (%, negative = inhibition) at 10uM” value was -5.01%.
In the case of `O=C(OCCOc1ccccc1F)c1cccc(S(=O)(=O)N2CCOCC2)c1`, the “hERG current change (%, negative = inhibition) at 10uM” value is reported as 12.9%.
In the case of `COc1ccc(NC(=O)/C=C/c2cccc(F)c2)cn1`, the “hERG current change (%, negative = inhibition) at 10uM” value is reported as -12.7%.
`O=C(Nc1ccc(Cl)c(Cl)c1)c1ccc2c(c1)OCO2` was tested, and the “hERG current change (%, negative = inhibition) at 10uM” value was 18%.
With `NC(=S)N/N=C/c1ccc2cccc(OCc3ccccc3)c2n1` the “hERG current change (%, negative = inhibition) at 10uM” value was -13.7%.
With `Cl.N=C(N)N=Nc1c(O)[nH]c2ccc(Br)cc12` the “hERG current change (%, negative = inhibition) at 10uM” value was 1.23%.
In the case of `Cc1ccc2c(CC(=O)OCC(=O)N(CC(C)C)c3c(N)n(Cc4ccccc4)c(=O)[nH]c3=O)coc2c1`, the “hERG current change (%, negative = inhibition) at 10uM” value is reported as -6.94%.
With `O=C(O)COCC(=O)NC1CCN(Cc2ccccc2)CC1` the “hERG current change (%, negative = inhibition) at 10uM” value was 12.5%.
`Cc1nn(-c2ccccc2)c(C)c1NC(=O)COC(=O)Cc1ccccc1` was tested, and the “hERG current change (%, negative = inhibition) at 10uM” value was 3.73%.
`O=C(NC1CCCCC1)c1cc(N2C(=O)CCC2=O)ccc1Cl` was tested, and the “hERG current change (%, negative = inhibition) at 10uM” value was 22%.
`COc1ccc(-c2[nH]c3ccccc3c2SCCN)cc1` was tested, and the “hERG current change (%, negative = inhibition) at 10uM” value was -13.3%.
For `CCC(C)(C)C(=O)Nc1ccc(OC)cc1[N+](=O)[O-]`, the “hERG current change (%, negative = inhibition) at 10uM” value was -11.1%.
With `O=C(COc1ccc(S(=O)(=O)N2CCCC2)cc1)NCc1ccccn1` the “hERG current change (%, negative = inhibition) at 10uM” value was -8.41%.
For `CCOc1ccc(OCC)c(S(=O)(=O)NCc2cccnc2)c1`, the “hERG current change (%, negative = inhibition) at 10uM” value was 3.2%.
In the case of `O=C(NCCc1ccncc1)C12CC3CC(CC(C3)C1)C2`, the “hERG current change (%, negative = inhibition) at 10uM” value is reported as -13.3%.
In the case of `CSc1nc2c(c(-c3ccccc3)c1C#N)CCC2`, the “hERG current change (%, negative = inhibition) at 10uM” value is reported as 1.65%.
For `ONC(=Nc1ccccc1)C(=Nc1ccccc1)NO`, the “hERG current change (%, negative = inhibition) at 10uM” value was 1.78%.
For `CC(C)NC(=O)NC(=O)COC(=O)c1cc[n+]([O-])cc1`, the “hERG current change (%, negative = inhibition) at 10uM” value was 12.2%.
For `Cc1cccc2c1NC(C)CC2C.Cl` (centres unmarked), the “hERG current change (%, negative = inhibition) at 10uM” value was 8.01%.
`COc1ccc(C(=O)NCC(=O)OCn2nnc3ccccc3c2=O)cc1OC` was tested, and the “hERG current change (%, negative = inhibition) at 10uM” value was 13.5%.
In the case of `COc1cccc(NCc2nnc(SCC(=O)NC3CCS(=O)(=O)C3)n2C2CCCCC2)c1` (centres unmarked), the “hERG current change (%, negative = inhibition) at 10uM” value is reported as 12.7%.
`Cc1ccc(CN2CCN(Cc3ccc4cc(F)ccc4n3)CC2CCO)o1` (centres unmarked) was tested, and the “hERG current change (%, negative = inhibition) at 10uM” value was -30.6%.
In the case of `COc1ccc(NC(=O)CCNS(=O)(=O)c2cc(Br)cnc2N)cc1OC`, the “hERG current change (%, negative = inhibition) at 10uM” value is reported as 22.2%.
For `O=C(CCn1nnc2ccccc21)OCC(=O)c1ccc([N+](=O)[O-])cc1`, the “hERG current change (%, negative = inhibition) at 10uM” value was -0.045%.
In the case of `Cc1cccc2cc(COC(=O)c3ccccc3)c(=O)[nH]c12`, the “hERG current change (%, negative = inhibition) at 10uM” value is reported as -0.867%.
For `CC(=O)NC(=S)NNC(=O)CCc1ccccc1`, the “hERG current change (%, negative = inhibition) at 10uM” value was 14.4%.
`O=c1oc(Cl)c(Cl)c2ccccc12` was tested, and the “hERG current change (%, negative = inhibition) at 10uM” value was 11.7%.
In the case of `Cc1ccccc1NC(=O)Cc1nc(COC(=O)c2cccc(O)c2)cs1`, the “hERG current change (%, negative = inhibition) at 10uM” value is reported as -17.7%.
For `COc1ccc(NC(=O)N(C2CCCCC2)C(C)c2ccco2)c(OC)c1` (centres unmarked), the “hERG current change (%, negative = inhibition) at 10uM” value was 2.86%.
For `CCCS(=O)(=O)N1CCc2ccc(NC(=O)c3ccccc3Cl)cc2C1`, the “hERG current change (%, negative = inhibition) at 10uM” value was -3.06%.
For `CCc1ccc(Nc2cnn(-c3nc4ccccc4s3)c(=O)c2Cl)cc1`, the “hERG current change (%, negative = inhibition) at 10uM” value was 5.54%.
In the case of `COC(=O)c1sccc1NS(=O)(=O)c1ccc(F)cc1F`, the “hERG current change (%, negative = inhibition) at 10uM” value is reported as -2.84%.
With `COC(=O)C1CCN(c2cc(Cl)nc(N)n2)CC1` the “hERG current change (%, negative = inhibition) at 10uM” value was 6.26%.
`CCc1c(-c2ccccc2)nc2ccccc2c1C(=O)N1CCC2(CC1)OCCO2` was tested, and the “hERG current change (%, negative = inhibition) at 10uM” value was 5.59%.
For `CC(=O)c1cccc(N=Cc2c(O)ccc3ccccc23)c1`, the “hERG current change (%, negative = inhibition) at 10uM” value was -2.52%.
With `COc1cccc(NC(=O)c2ccccc2F)c1` the “hERG current change (%, negative = inhibition) at 10uM” value was -15.5%.
For `OCCN1CCOCCN(CCO)CCOCC1`, the “hERG current change (%, negative = inhibition) at 10uM” value was 4.69%.
With `COc1ccc(C(=O)NC(CC(C)C)C(=O)O)cc1OC` (centres unmarked) the “hERG current change (%, negative = inhibition) at 10uM” value was 7.48%.
With `S=C(Cc1ccc(Cl)cc1)N1CCOCC1` the “hERG current change (%, negative = inhibition) at 10uM” value was 11.1%.
With `CN1C(CC(=O)Nc2ccc(Cl)cc2Cl)c2ccccc2CC1(C)C` (centres unmarked) the “hERG current change (%, negative = inhibition) at 10uM” value was -76.7%.
For `Cn1cc(-c2ccccc2C(N)=O)c(=O)c2cc(Cl)ccc21`, the “hERG current change (%, negative = inhibition) at 10uM” value was 11.2%.
With `O=C(c1cc(COc2ccc(F)cc2Cl)on1)N1CCc2sccc2C1` the “hERG current change (%, negative = inhibition) at 10uM” value was 22.7%.
